The IC50 comes from the fitted curve, where viability falls to half of the control; a limit (>, <) means that the fit lies beyond the doses tested. The AUC spans the tested range (256-fold, ending at the top dose) of the same fit; it is 1 without any effect and falls as sensitivity rises. An inferred top dose was calculated from the reported fits.
How the values were obtained:
Assay in all cases: Viability of human cancer cell lines after 72 h of drug (GDSC screen)
BAY 61-3606 = compound: COc1ccc(-c2cc3nccn3c(Nc3ncccc3C(N)=O)n2)cc1OC [BAY 61-3606]; settings: top dose 8 µM; top dose inferred
Method: (§1)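 Human cancer cell lines in 384-well plates, medium with 10% serum, drug for 72 h over a 256-fold dose range (nine 2-fold or five 4-fold steps up to the top dose). Adherent lines were fixed and stained with the nucleic acid dye Syto60, suspension lines read with resazurin; signal relative to control wells, capped at 0 and 100%. One two-parameter sigmoid per drug and line, fitted in a mixed model over all curves with the slope shared within a line.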

KIN001-266 = compound: CCN1CCC(n2cc(CNc3cc(Cl)c4ncc(C#N)c(Nc5ccc(F)c(Cl)c5)c4c3)nn2)CC1 [KIN001-266]; settings: top dose 20 µM; top dose inferred
Method: as §1

QL-XII-47 = compound: C=CC(=O)N1CCc2ccc(-n3c(=O)ccc4cnc5ccc(-c6cnn(C)c6)cc5c43)cc21 [QL-XII-47]; settings: top dose 10.24 µM; top dose inferred
Method: as §1

Row | Cell Line | AUC (BAY 61-3606) | IC50 (BAY 61-3606) [µM] | AUC (KIN001-266) | IC50 (KIN001-266) [µM] | AUC (QL-XII-47) | IC50 (QL-XII-47) [µM]
1 | BB49-HNC (head and neck, adherent) | 0.75 | 3.61 | 0.969 | > 20 | 0.978 | > 10.2
2 | BC-3 (B-cell lymphoma, suspension) | 0.772 | 2.78 | 0.875 | 16 | 0.879 | 8.59
3 | BICR31 (head and neck, adherent) | 0.929 | > 8 | 0.949 | > 20 | 0.802 | 5.12
4 | CAL-62 (thyroid, adherent) | 0.921 | > 8 | 0.918 | > 20 | 0.725 | 2.68
5 | CAL-148 (breast, suspension) | 0.96 | > 8 | 0.83 | 11.3 | 0.929 | > 10.2
6 | CAS-1 (glioma, adherent) | 0.762 | 3.89 | 0.863 | > 20 | 0.785 | 6.19
7 | COLO-792 (melanoma, adherent) | 0.988 | > 8 | 0.984 | > 20 | 0.653 | 1.68
8 | Calu-6 (lung adenocarcinoma, adherent) | 0.85 | 7.53 | 0.895 | > 20 | 0.871 | > 10.2
9 | Caov-3 (ovary, adherent) | 0.967 | > 8 | 0.941 | > 20 | 0.879 | 8.3
10 | DB (B-cell lymphoma, suspension) | 0.833 | 6.09 | 0.837 | 15.9 | 0.681 | 2.2
11 | DOHH-2 (B-cell lymphoma, suspension) | 0.736 | 2.31 | – | – | – | –
12 | ES4 (Ewing sarcoma, adherent) | 0.64 | 1.29 | 0.724 | 5.99 | 0.67 | 2.05
13 | GAK (melanoma, adherent) | 0.967 | > 8 | 0.865 | 16.3 | 0.976 | > 10.2
14 | GR-ST (lymphoblastic leukaemia, suspension) | 0.78 | 4.02 | 0.828 | 16 | 0.581 | 1.12
15 | HCC1599 (breast, suspension) | 0.758 | 3.15 | 0.859 | > 20 | 0.639 | 1.64
16 | HCC-33 (small cell lung carcinoma, adherent) | 0.922 | > 8 | 0.876 | > 20 | 0.533 | 0.786
17 | HCC-78 (lung adenocarcinoma, adherent) | 0.826 | 6.02 | 0.837 | 16.9 | 0.6 | 1.27
18 | HT-1376 (bladder, adherent) | 0.777 | 3.8 | 0.982 | > 20 | 0.985 | > 10.2
19 | Hs-445 (Hodgkin lymphoma, suspension) | 0.588 | 0.853 | 0.862 | 15 | 0.393 | 0.333
20 | KP-N-YN (neuroblastoma, adherent) | 0.904 | > 8 | 0.981 | > 20 | 0.968 | > 10.2
21 | KP-N-YS (neuroblastoma, adherent) | 0.843 | – | 0.784 | 9.86 | 0.55 | 0.896
22 | LCLC-97TM1 (large cell lung carcinoma, adherent) | 0.517 | 0.559 | 0.808 | 11.6 | 0.432 | 0.41
23 | LoVo (large intestine, adherent) | 0.746 | 2.57 | 0.939 | > 20 | 0.968 | > 10.2
24 | MC-IXC (neuroblastoma, adherent) | 0.973 | > 8 | 0.877 | 11.3 | 0.66 | 1.57
25 | MDA-MB-330 (breast, adherent) | 0.978 | > 8 | 0.952 | > 20 | 0.688 | 2.34
26 | MHH-NB-11 (neuroblastoma, adherent) | 0.946 | > 8 | 0.871 | > 20 | 0.628 | 1.5
27 | MMAC-SF (melanoma, adherent) | 0.935 | > 8 | 0.867 | 19.5 | 0.677 | 2.05
28 | NB13 (neuroblastoma, adherent) | 0.794 | 3.21 | 0.758 | 6.23 | 0.692 | 2.06
29 | NCI-H716 (large intestine, suspension) | 0.932 | > 8 | 0.86 | > 20 | 0.728 | 3.42
